# The list shows a part of the results.
# System: PF3D7_0420300 AP2 domain 1 (GST-tagged)
# Test: gcPBM binding intensity (ln(normalized median fluorescence intensity)); higher = stronger DNA binding
# How it was run: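 GST-tagged P. falciparum DNA-binding domains produced in E. coli were incubated for 1 h on an Agilent 4 × 180k array of primer-extended double-stranded 36-bp intergenic genomic probes with negative controls. Binding intensity is the highest Masliner-normalised natural-log median intensity across replicate spots of either probe orientation, with bound protein detected by Alexa488 anti-GST antibody at 488 nm.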
row,Sequence,gcPBM binding intensity (ln)
1,AACATAAATATATATAGTACATATATATATATTCAA [XGTACX_site7287],9.08
2,TTCTATATTTTAGCTGATAATATTATGAGCTTCACT [XGTACX_negctrl_site427],9.08
3,CGAAATATTATGTACGCACACACATTTTTAATATAT [CACACA_site3852],9.72
4,ATATAGATCAGACACACACACATGTTTTAAAACTAT [CACACA_site6186],9.98
5,AAGGAATAATATAAAACACACACATAAATATAAATA [CACACA_site9115],10.1
6,AATATATGGTATAATTGTACAAAAAAAAAAAAAAAA [XGTACX_site1476],8.88
7,CTTTAACCTTTTTATTGTACTTTTAATATTTTAAAA [XGTACX_site4457],9.15
8,TCTTTAATGAACAAATGTACAAGAACAATACCCGCA [XGTACX_site2047],9.58
9,GTGAAATGGAAAAAAAGTACAGATTACATAAGTATT [XGTACX_site6355],9.38
10,TGCTTATATATACGTGCACACATATATATAAGATAT [CACACA_site8516],9.34
11,TATTTTAATTATAAATTTAAAAAAAAAAAGAAAAAA [CACACA_negctrl_site1674],9.01
12,CTGGAGGATGAAAAAAGTACAAAAGGAGGAAATGTA [XGTACX_site8846],9.44
13,AAAACAAATATATTAACACACAAACATATAAACAAA [CACACA_site6052],10
14,AGCTCATGCAGGTGTACACAAAAAGAAAAAAAATAA [CACACA_site4828],9.2
15,CCCCATATAATGAACACACACACTCCTCATAATTAA [CACACA_site628],10.2
16,ATGTCCTCAATGTTTACACACTCTTTTATATAAGTT [CACACA_site1460],9.71
17,ATAAATAATGTTGACACACACAATAATCTTATTATG [CACACA_site3593],9.57
18,AACGTTCAATTTAAATGTACAAATGTATTTAAATAT [XGTACX_site315],9.16
19,AGTTTAGAATTTAATACACACAAAAAAAAAAAATTA [CACACA_site7698],9.55
20,AAATACAAAATTGTTACACACATATTAAGTATGACA [CACACA_site4421],9.49
21,TTTCTTTTTTCATTTACACACAATAATATAAGAATA [CACACA_site3164],9.32
22,TACACAAATATATATATATATATATATATATATATA [XGTACX_negctrl_site305],9.49
23,TTGTGTTTTACATATACATGCAAATTTTTTTTTTTA [TGCATGCA_site303],8.99

row,Sequence,gcPBM binding intensity (ln)
1,TAAATCATTTCATGGCATTTACACAAAATTTTTTAA [CACACA_negctrl_site1260],8.88
2,TATAGCATAAATATGTGTACATATTTATATGATATT [XGTACX_site6333],9.17
3,TATTTATTTATATAAACACACATAAATATAAATATA [CACACA_site6653],9.22
4,TATATATAATATTATACACACATATATGCATAATAT [CACACA_site54],9.46
5,ATATATATTTAAAAAAGTACAGAAGAAAATAACCCA [XGTACX_site642],9.65
6,TATTACACATATTATACACACATATATTATATATAT [CACACA_site4951],9.62
7,TAACATATTTTTAATACACACTTAAAAAAGTACTTA [CACACA_site4875],9.09
8,TTAAATTGAATTAGTTAACACACAACTTTTATTTCA [CACACA_site8921],9.14
9,TCTTCATACGACTAAAAAACATTAGACTGATAAAAA [CACACA_negctrl_site628],8.98
10,ATACTATATATATAAGTGCATGTTCATTATACCTAA,9.29
11,ATATATATTATGTGTGTGCACTTTTGTTATTATTAT,9.92
12,ATAACTAAATGATATTGTACAAAATAATTATATATT [XGTACX_site1331],9.31
13,CATTATATGATTTATGTGCACATTCATTTATTTTAA,9.29
14,TATTAATAAAACCGTTGTACTACATACATAAATATT [XGTACX_site5578],9.12
15,AAAAATCAATTAGAAGAACACACGTAAATTTTTTTT [CACACA_site2396],9.42
16,TATTTATGTTCATATAAACACACGTAAAATTCAAGG [CACACA_site1538],9.26
17,GTCCCTATAAGGGGAACACACATAAATGGATATATA [CACACA_site6612],9.21
18,TCAATAAAAAAAAACGCACACACAAATATATTCCAT [CACACA_site1223],9.98
19,CATATTCATAAAAGTTGTACATGCAATTTTTTTTTT [XGTACX_site2261],9.05
20,TAAATGGGTGTTAATGCACACGATATGTCTATATAT [CACACA_site5321],9.32
21,TATTTATTTTTCTGTTGTACTTTTCAACATGTTACA [XGTACX_site7457],9.29
22,TCTACATATTAATTATGTACGAATTATTATTAGTAA [XGTACX_site6924],8.95

# From the supplement of paper PMC11417369
